PubChem BioAssay AID1508624 (National Center for Advancing Translational Sciences (NCATS), 2021)
In all, about 48,000 compounds went through this assay and about 120 (0.25%) were called active. Roughly 4% stayed inconclusive and do not appear here. Calls come from the whole dose curve; as a rule, active = well fitted activation curve with a large enough effect; inconclusive = small, poorly fitted or top-dose-only effect, or another doubt; inactive = no such curve, though single readings can be large or run the other way. Some of the results follow.

assay: Primary qHTS for Identification of Small Molecule Activators of Huntingtin-Antisense Promoter Activity; conditions: HEK293 HTT-AS promoter firefly luciferase reporter, 24 h; series mostly up to 57.5 µM; activity change, positive = activation: at the top concentration; note: nearly all actives have a fitted effect of over 55% in size
Method in brief: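 HEK293 cells carrying firefly luciferase reporters were seeded at 2,500 per well in Opti-MEM and cultured for 24 h. They were then treated with compounds at up to 57.5 uM final for 24 h at 37 degrees C before Dual-Glo luminescence readout.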

Activity change, positive = activation, inactive:
Cc1cc(C)n(-c2nc3cc(Cl)ccc3nc2Nc2ccc(CC(=O)O)cc2)n1 -2.24%
COc1ccc2nc(NC(=O)c3nc(SCc4ccccc4F)ncc3Cl)sc2c1 18.8%
COc1ccccc1CNC(=O)C1CCN(S(=O)(=O)c2ccc3c(ccn3C)c2)CC1 -7.75%
CCCCn1c(NCc2cc(Br)ccc2O)nc2ccccc21 -40.9%
COC(=O)c1c(-c2cccs2)csc1NC(=O)c1ccc(OC)c(OC)c1 9.04%
CCNC(=O)C1CCN(c2nnc(C)c3c(C)n(-c4ccc(OC)cc4)nc23)CC1 -0.616%
Cc1cccc(NC(c2ccccc2C)c2ccc3ccc(C)nc3c2O)n1 (configuration not stated) -30.7%
CCOC(=O)CSc1nc(-c2ccc(Cl)cc2)cc(C(F)(F)F)c1C#N -11.6%
Cc1ccc(C(=O)Oc2c(S(=O)(=O)c3ccccc3)c(C)nn2-c2ccccc2)cc1 -16%
CN1C(=O)c2ccccc2Sc2ccc(NC(=O)NCc3cccc(Cl)c3)cc21 -37.8%
Cc1ccc(NC(=O)CCNS(=O)(=O)c2cccc3nonc23)cc1Cl -14.4%
Cc1cn2c(=O)cc(COC(=O)c3cccc(NC(=O)COc4ccccc4C)c3)nc2s1 -10.2%
Cc1ccc(Cc2nc3ccccc3nc2SCC(=O)N2CCCc3ccccc32)cc1 -1.4%
COc1ccc(-n2c(-c3ccc(C)cc3)cc3c2CC(C)(C)CC3=O)c(OC)c1 -35.5%
Cc1ccccc1N1C(=O)c2cc(S(N)(=O)=O)c(Cl)cc2NC1C (configuration not stated)
Cc1ccccc1C(=O)NCCc1csc(-c2ccc(C(F)(F)F)cc2)n1 -32.2%
CCCNC(=O)C(C)n1nc(C)c2c(C)n(-c3ccccc3)nc2c1=O (configuration not stated) -32%
Cc1ccc(CNC(=O)CSc2c3c(nc4cc(Cl)ccc24)CCCC3)cc1 -16.7%
CC[C@H](NC(C)C)[C@H](O)c1ccc(O)c2[nH]c(=O)ccc12
O=C(O)CNC(=O)c1ccccc1I -10.3%
CCN1CCN(C(=O)Cn2c(-c3cccs3)cc3ccccc32)CC1 -7.37%
COc1nc(-c2ccccc2)ccc1-c1noc(-c2ccccc2Br)n1 -3.6%
COc1ccc(CCNC(=O)c2ccc3c(c2)N(Cc2ccccc2F)C(=O)c2ccccc2S3=O)cc1OC (configuration not stated) -20.9%
CCOc1ccccc1CNC(=O)CCc1c(C)nn(-c2ccc(N3CCOCC3)nn2)c1C -13.9%
O=C(CN1C(=O)COc2ccc(S(=O)(=O)N3CCCC3)cc21)N1CCN(c2cccc(C(F)(F)F)c2)CC1 -32.9%
COc1ccc(N2CCN(S(=O)(=O)CCNC(=O)COc3ccccc3F)CC2)cc1 -9.93%
CCN(CC)S(=O)(=O)c1ccc(C(=O)NCCSc2c(-c3ccc(C)cc3)[nH]c3ccccc23)cc1 -25.7%
Cc1c(Cl)cccc1-n1ncc(C(=O)NCc2cccs2)c1C1CCN(C(=O)OC(C)(C)C)CC1 -31.9%
COC(=O)c1c(NC(=O)c2cc(OC)c(OC)c(OC)c2Br)sc2c1CCC(C)C2 (configuration not stated) 15.7% [at 11.5 µM, percent change from vehicle, -100% = no light]
COc1cc(C2c3c(-c4ccc(C)cc4)n[nH]c3C(=O)N2c2ccc(F)cc2)ccc1O (configuration not stated) -54.9%
Cc1cccc(NC(=O)c2cc(S(=O)(=O)N3CCN(c4ccccc4F)CC3)ccc2F)c1C -24.9%
COc1ccc(CNC(=O)CCn2nc(C)c3c(C)n(-c4ccccc4)nc3c2=O)c(OC)c1 2.68%
CNC(=O)Cn1c(=O)c2cccn2c2ccc(F)cc21 6.31%
CC(C)CNc1ncnc2c1nnn2C 5.96%
O=C(CCNS(=O)(=O)c1cccc2nsnc12)NCc1ccccc1 -1.36%
COc1ccc(CNC(=O)c2ccc3nc(CCc4ccccc4)oc3c2)c(OC)c1 5.73%
CCOc1ccccc1NC(=O)Cn1c(=O)n(Cc2ccco2)c(=O)c2ccc(C(=O)NC3CCCC3)cc21 -19%
COc1ccc(Cl)cc1NC(=O)Cn1nc(Cc2ccncc2)c2ccccc2c1=O -18.4%
CCc1ccccc1NC(=O)C1CCN(C(=O)N2CC(C)Oc3ccc(Cl)cc32)CC1 (configuration not stated) -18.9%
COc1ccccc1NC(=O)N1CCC(CN2CCc3ccccc3C2)CC1 12.7%
Cc1cc(F)ccc1NC1(c2ccccc2)C(=O)c2ccccc2C1=O -13.1%
Cc1ccc(OC(=O)CSc2nnc(-c3cccs3)o2)cc1C -2.7%
CCn1cc(C(=O)NCCc2ccc(OC)c(OC)c2)c(=O)c2cc(S(=O)(=O)N3CCC(C)CC3)ccc21 -11.5%
CCOc1ccc(-n2c(SCC(=O)N3CCCCCC3)nc3c([nH]c4ccccc43)c2=O)cc1 -10.5%
CCOc1ccc(N(CC(=O)Nc2ccccc2CC)S(=O)(=O)c2c(C)[nH]c(=O)[nH]c2=O)cc1 0.457% [at 11.5 µM, percent change from vehicle, -100% = no light]
Cc1ccc(NC(=O)Cn2c(=O)oc3ccccc32)cc1C -12.6%
CC(C)(C)C1CCc2c(sc3nnn(CCOc4ccccc4)c(=O)c23)C1 (configuration not stated) 9.7%
Cc1ccc(C)c(NC(=O)c2nn(C)c3c2CS(=O)(=O)c2ccccc2-3)c1 -6.65%
COc1cc(/C=C/c2nc(C#N)c(NCCc3ccccc3)o2)cc(OC)c1OC -24.6%
COc1cc(NC(=O)c2nc3ccccc3nc2N2CCCCC2)cc(OC)c1OC -5.56%
Cc1ccc(CNC(=O)c2ccc(-c3nc(CS(=O)c4ccccc4)c(C)o3)cc2)cc1 (configuration not stated) 2.92%
Cc1cccc(-c2nc(CSCC(=O)NCCc3ccc(Cl)cc3)c(C)o2)c1 -23.1%
Cc1ccc(-c2nn(CC(=O)NC3CCCC3)c3c2cnc2ccccc23)cc1 3.12%
Cc1ccc(C)c(NC(=O)CN2C(=O)c3cccnc3Oc3ccc(C)cc32)c1 -18.3%
O=C1N(c2ccccc2)c2ccccc2C1(Cc1ccncc1)Cc1ccncc1
COCCn1ccc2c(OCC(=O)Nc3ccccc3F)cccc2c1=O 12.5%
CCOC(=O)N1CCc2c(sc3c2c(=O)n(CCc2ccccc2)c(=O)n3CC(=O)Nc2cccc(C)c2)C1 -21.2%
COc1ccc(OC)c(C2C(C(=O)N3CCCCC3)=C(C)Nc3nc4ccccc4n32)c1 (configuration not stated) -14.3%
N#C/C(=C/c1cn(Cc2ccccc2Cl)c2ccccc12)C(=O)Nc1cccc(Cl)c1 16.6% [at 11.5 µM, percent change from vehicle, -100% = no light]
CC(C)(C)c1ccc(CN(Cc2ccco2)c2cnc(S(C)(=O)=O)nc2C(=O)Nc2ccc(F)cc2)cc1 -15.1%
Cc1cc(C)c(NC(=O)Cn2c(=O)nc(-c3ccccc3)c3cc(Cl)ccc32)c(C)c1 -1.51%
COc1cc(NC(=O)N2CCC3(CC2)Nc2cc(F)ccc2-n2cccc23)cc(OC)c1OC -31.3%
Cc1cc(=O)n(Cc2cccc(F)c2)c2c1c(C)nn2-c1cccc(F)c1 -14.1%
CCc1cccc(CC)c1-n1nnc2c(sc3nc(C)cc(C)c32)c1=O -10.4%
Cc1ccccc1CN1c2ccccc2-c2nc(SCC(N)=O)ncc2S1(=O)=O 18.9%
O=C(CSc1nc(-c2ccc(F)cc2)[nH]c1-c1ccccc1)Nc1ccccc1 -30%
CCc1ccc(-c2nn(CC(=O)Nc3ccccc3C)c3c2cnc2ccc(C)cc23)cc1 6.37%
CCn1cc2nc(SCc3cccc(C(F)(F)F)c3)n(Cc3ccc(Cl)cc3)c(=O)c2n1 10.1%
COc1ccc(OC)c(NC(=O)CCCc2nnc3n(C(C)C)c(=O)c4sccc4n23)c1 11.4%
Cc1ccc(Cl)cc1-n1nnc(-c2nsc(NC(=O)c3ccccc3Cl)n2)c1C -2.77%
Cc1ccc2oc(C(=O)Nc3ccc(S(=O)(=O)N4CCCC(C)C4)cc3)cc(=O)c2c1 (configuration not stated) 4.97%
O=C(O)c1ccccc1C(=O)Nc1ccc(-c2ccccc2)cc1 -61.2%
Cc1ccc(C)c(N2CCN(C(=O)c3cnn(C(C)(C)C)c3C3CCN(C(=O)OC(C)(C)C)CC3)CC2)c1 -37.7%
COc1ccc(Cl)cc1NC(=O)NCCn1c(=O)oc2ccc(C)cc21 -28.7%
CCc1ccc(-n2c(=O)c3ccccc3n(CC(=O)NCCc3ccc(OC)c(OC)c3)c2=O)cc1 -18%
COc1ccc(C)cc1NC(=O)N1CCC(CN2CCOCC2)CC1 -15.5%
Cc1ccc2cc3cc(C(=O)N4CCN(c5ccc(Cl)cc5)CC4)oc3nc2c1 -1.22%
Cn1cc(S(C)=O)c(=O)c2ccc(F)cc21 (configuration not stated) 1.84%
Cc1ccccc1NC(=O)c1c(NC(=O)c2ccccc2)sc2c1CCC2 14.8%
CCN(CC)C(=O)c1sc2c(c1C)c(=O)n(-c1ccccc1)c(=O)n2Cc1c(C)cc(C)cc1C -17%
COc1ccc(-c2cn3nc(N4CCC(C(=O)Nc5ccccc5OC)CC4)sc3n2)cc1 3.79%
CCOc1ccc(NC(=O)CC2C(=O)N(c3ccccc3)C(=O)N2CCc2cccs2)cc1 (configuration not stated) -24.4%
Cc1ccc(CCNC(=O)c2sc3ncccc3c2-n2c(C)ccc2C)cc1 9.88%
CC1CCCCN1c1c(S(=O)(=O)c2ccc(Cl)cc2)cnc2ccccc12 (configuration not stated) -26.8%
CCC(=O)Nc1ccc(CC)cc1-c1nc2ccccc2n(CC(=O)Nc2cccc(OC)c2)c1=O -24.8%
COc1cccc(C2=CC(c3ccccc3F)n3ncc(C(=O)Nc4ccc(C)cc4)c3N2)c1 (configuration not stated) -54.1%
Cc1cc(C)cc(-n2ccnc(NCCc3ccccc3)c2=O)c1 18.9%
CCOC(=O)c1cc2c(=O)n3ccccc3nc2n(CC(C)C)c1=NC(=O)COc1ccc(Cl)cc1 17.7%
COc1ccc(C(=O)Nc2ccc3nc4c(c(Nc5ccc(OC)c(OC)c5)c3c2)CCCC4)c(OC)c1 -6.99%
COc1ccc(-c2nc(CS(=O)CC(=O)NCCc3ccccc3)c(C)o2)cc1OC (configuration not stated) -5.07%
Cc1cc(N2CCN(C)CC2)nc2ccc(NC(=O)c3ccc(C(C)(C)C)cc3)cc12 -17.6%
Cc1ccc(-n2nc(C(=O)Nc3ccc(F)cc3Cl)c(=O)n(C)c2=O)cc1 -2.42%
